Assay results reported in the supplement of paper PMC11417369.
± gives the standard deviation of the averaged measurements. The list shows a part of the results.

The sequences below were run on PfAP2-EXP AP2 domain (GST-tagged) (assay: gcPBM binding intensity (ln(normalized median fluorescence intensity)); higher = stronger DNA binding).
In short: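 The binding buffer was 1× PBS containing 1% milk, 0.2 mg/ml BSA, 0.5% salmon testes DNA and 0.03% Triton X-100. In it, GST-tagged P. falciparum DNA-binding domains expressed in E. coli were applied for 1 h to an Agilent 4 × 180k array of primer-extended double-stranded 36-bp intergenic genomic probes plus negative controls. Binding intensity, read with Alexa488 anti-GST antibody and a 488 nm scan, is the highest Masliner-normalised natural-log median intensity across replicate spots of either probe orientation.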

Question: How did the “gcPBM binding intensity (ln)” value turn out when “AAAAAAAAAAAAAAATGTACATATATATATATATTA [XGTACX_site7330]” was run?
Answer: Its value is 8.34 ± 0.45.

Question: How did the “gcPBM binding intensity (ln)” value turn out when “AGTAGATATAATATATGTACATATATATATATATAT [XGTACX_site7186]” was run?
Answer: Its value is 10.1 ± 0.34.

Question: “AATTAATGGTTAAAGGTGCACAATACATATATTACA [GTGCAC_site9943]” was tested. Which “gcPBM binding intensity (ln)” value did it give?
Answer: Its value is 9.57 ± 0.45.

Question: For “ATATTAAACAAACACACACACATATATATATATATA [CACACA_site3383]”, which “gcPBM binding intensity (ln)” value is on record?
Answer: Its value is 10.2 ± 0.26.

Question: With “TGCATATACTCAAGCACACATATATATATATATATA [CACACA_site4733]” as the sequence, how does the “gcPBM binding intensity (ln)” value read?
Answer: The value was 10.2 ± 0.33.

Question: Which “gcPBM binding intensity (ln)” value does the source give for “TTTTTTTTTTTTTTTTTTTTTTTTTTTTTTTGGGGG [CACACA_negctrl_site1570]” here?
Answer: The value was 9.13 ± 0.49.

Question: With “ATATATTGAAAATATAGTACATAATAAATGTTCTTT [XGTACX_site8474]” as the sequence, how does the “gcPBM binding intensity (ln)” value read?
Answer: The value was 8.23 ± 0.36.

Question: “AATAAATTTAAACACACACACACATATATATATATA [CACACA_site4621]” was tested. Which “gcPBM binding intensity (ln)” value did it give?
Answer: Its value is 10.2 ± 0.3.

Question: How did the “gcPBM binding intensity (ln)” value turn out when “TATATACATAAACACACACACACATATATATATATA [CACACA_site8707]” was run?
Answer: The value was 10.2 ± 0.29.

Question: “AATAATATTTAATACGCACACAATAATAATATAAAA [CACACA_site1763]” was tested. Which “gcPBM binding intensity (ln)” value did it give?
Answer: Its value is 8.59 ± 0.35.

Question: How did the “gcPBM binding intensity (ln)” value turn out when “TCTTATAAAGGTAATTGTACATATTTATAATTTCTT [XGTACX_site4847]” was run?
Answer: The value was 8.27 ± 0.4.

Question: “GTGAAAGGAAAAGTTGAACACACAAAGTAAACTATA [CACACA_site9178]” was tested. Which “gcPBM binding intensity (ln)” value did it give?
Answer: Its value is 8.8 ± 0.36.

Question: “ATATATTATTATACATGTACATATATAGATATATAT [XGTACX_site4358]” was tested. Which “gcPBM binding intensity (ln)” value did it give?
Answer: The value was 8.53 ± 0.35.

Question: “CACACGCACGAACACACACACATATAAATATAAATA [CACACA_site6299]” was tested. Which “gcPBM binding intensity (ln)” value did it give?
Answer: The value was 8.65 ± 0.35.

Question: How did the “gcPBM binding intensity (ln)” value turn out when “ATATACATATAGGATGCACACATAATTCAAATACAA [CACACA_site8120]” was run?
Answer: Its value is 8.56 ± 0.43.

Question: How did the “gcPBM binding intensity (ln)” value turn out when “AACAATAATTTTGAATGTACATATAAATATTTTTAT [XGTACX_site5501]” was run?
Answer: Its value is 8.39 ± 0.38.

Question: Which “gcPBM binding intensity (ln)” value does the source give for TATAATGGTTCTGGTGTGCACCATGACAGAATCAAG here?
Answer: Its value is 8.93 ± 0.11.

Question: For “AAAAAAAAGAATAGCACACACACATATATAAATATA [CACACA_site630]”, which “gcPBM binding intensity (ln)” value is on record?
Answer: Its value is 8.64 ± 0.49.

Question: Which “gcPBM binding intensity (ln)” value does the source give for “ATAAATACTAAAAATGAAATATAGAAAATAGCAATA [CACACA_negctrl_site501]” here?
Answer: Its value is 8.7 ± 0.36.

Question: With “GTTAATTCTATGAATTGTACTTAAATATAATTATAT [XGTACX_site2785]” as the sequence, how does the “gcPBM binding intensity (ln)” value read?
Answer: The value was 8.36 ± 0.38.

Question: How did the “gcPBM binding intensity (ln)” value turn out when “TATAATATATTATATACACACATTATAAAATACCCA [CACACA_site4858]” was run?
Answer: The value was 8.6 ± 0.36.

Question: Which “gcPBM binding intensity (ln)” value does the source give for “CAAAATAAAAATAACACACACATTTATATAAATACA [CACACA_site4790]” here?
Answer: Its value is 8.6 ± 0.45.

Question: For “ACAGTTAAAACAATAACACACAAAGAAAAAAAAAAA [CACACA_site737]”, which “gcPBM binding intensity (ln)” value is on record?
Answer: Its value is 8.54 ± 0.45.

Question: With “AGGTAGAAATTGTTAAAAAATCATACATATTATATA [CACACA_negctrl_site622]” as the sequence, how does the “gcPBM binding intensity (ln)” value read?
Answer: Its value is 8.22 ± 0.31.

Question: For “TATATTTTTATTGAACGTACAAAAAGTCGAAAACAG [XGTACX_site3967]”, which “gcPBM binding intensity (ln)” value is on record?
Answer: Its value is 8.74 ± 0.3.

Question: Which “gcPBM binding intensity (ln)” value does the source give for “TTTAAATACAGACATACACACATACACGCACATATA [CACACA_site6400]” here?
Answer: Its value is 8.91 ± 0.34.

Question: Which “gcPBM binding intensity (ln)” value does the source give for “TATATTTATTTTCTGTGTACACATATGTTGTGTATT [XGTACX_site7640]” here?
Answer: The value was 8.87 ± 0.45.

Question: Which “gcPBM binding intensity (ln)” value does the source give for “TATATGTATCCATTATGTACATAATAGTAATATAAT [XGTACX_site4008]” here?
Answer: Its value is 8.53 ± 0.33.

Question: For “TAAAAAATACAAGAGTGTACAAAATTTTTCTAAATG [XGTACX_site5334]”, which “gcPBM binding intensity (ln)” value is on record?
Answer: Its value is 8.59 ± 0.45.

Question: With “AAAACCTAGTGCATTTGTACATATTTCAATTTTAAA [XGTACX_site4582]” as the sequence, how does the “gcPBM binding intensity (ln)” value read?
Answer: The value was 8.51 ± 0.099.

Question: With “TATACGTGTTTTATTTGTACTTAAGCAGGTAAGCAT [XGTACX_site193]” as the sequence, how does the “gcPBM binding intensity (ln)” value read?
Answer: The value was 8.54 ± 0.25.

Question: With “CTATATATTTTTTCTTAACACACATATATAAAATAA [CACACA_site9165]” as the sequence, how does the “gcPBM binding intensity (ln)” value read?
Answer: Its value is 8.38 ± 0.36.

Question: With “TTATTTTTTAATTATATTCAAAATTAAAAAAAAAAA [XGTACX_negctrl_site226]” as the sequence, how does the “gcPBM binding intensity (ln)” value read?
Answer: The value was 8.03 ± 0.53.

Question: For “ATTGATAAATTAACTAGTACACATATAAATATATTA [XGTACX_site2325]”, which “gcPBM binding intensity (ln)” value is on record?
Answer: The value was 8.3 ± 0.21.

Question: Which “gcPBM binding intensity (ln)” value does the source give for “ATTAAAAAAAAAAAAAAAAAAAAAAAAAAAAAAAAA [CACACA_negctrl_site1060]” here?
Answer: Its value is 7.93 ± 0.38.

Question: For “AATATAAATGTGATTACACACAACAGATTTAAATGG [CACACA_site4802]”, which “gcPBM binding intensity (ln)” value is on record?
Answer: Its value is 8.56 ± 0.42.

Question: How did the “gcPBM binding intensity (ln)” value turn out when “ATCATTTAAACAATATGTACTCATTGTAGATATGGT [XGTACX_site5088]” was run?
Answer: Its value is 8.53 ± 0.26.

Question: Which “gcPBM binding intensity (ln)” value does the source give for “TGAATAAAATATTATACACACATATGTATTTAACAT [CACACA_site4694]” here?
Answer: Its value is 8.32 ± 0.37.

Question: How did the “gcPBM binding intensity (ln)” value turn out when “AATGGGATCATGGTATGTACTTACACAAATGAATTA [XGTACX_site5389]” was run?
Answer: The value was 8.54 ± 0.36.

Question: For “TTGTATTTACTATACACACACATACATACATACATA [CACACA_site4603]”, which “gcPBM binding intensity (ln)” value is on record?
Answer: Its value is 8.62 ± 0.43.

Question: With “TATAAATATAAATACTGTACATTATATTATATAATA [XGTACX_site2480]” as the sequence, how does the “gcPBM binding intensity (ln)” value read?
Answer: The value was 8.24 ± 0.47.

Question: Which “gcPBM binding intensity (ln)” value does the source give for “CGTTACACAAAAATATGTACATATATACATATATAT [XGTACX_site4631]” here?
Answer: The value was 8.6 ± 0.35.

Question: “TAAAAATAATATTAATGTACATTACATATTAATATA [XGTACX_site1019]” was tested. Which “gcPBM binding intensity (ln)” value did it give?
Answer: Its value is 8.21 ± 0.39.

Question: For “TATTCCCCCAAACACACACACACACCCACATACCAC [CACACA_site2304]”, which “gcPBM binding intensity (ln)” value is on record?
Answer: Its value is 9.33 ± 0.23.
